According to PubChem BioAssay AID624417 (National Center for Advancing Translational Sciences (NCATS), 2012):
Where “and” joins values, the source holds several entries; their conditions need not be identical. Equal entries are not always repeated. Hit rate of the full screen: of about 410,000 compounds, about 6,400 (1.6%) were called active. Inconclusive means that the source gave no clear call. Such entries were picked first, then a sample of the others. Calls come from the whole dose curve; as a rule, active = well fitted inhibition curve with a large enough effect; inconclusive = small, poorly fitted or top-dose-only effect; inactive = no such curve, though single readings can be large or run the other way. Where the call is inconclusive, the potency comes from a doubtful curve fit.

molecular target: Glucagon-like peptide 1 receptor (Homo sapiens) (UniProt P43220); experiment: qHTS of GLP-1 Receptor Inverse Agonists (Inhibition Mode); details: HEK293 GLP-1R CRE-luciferase, luminescence, 24 h, GLP-1R form is constitutively active; activity change, negative = inhibition: at 38.3 µM (top of the series) unless noted; note: nearly all actives have a fitted effect of over 55% in size
Chain of UniProt P43220 (P43220 whole entry, looked up): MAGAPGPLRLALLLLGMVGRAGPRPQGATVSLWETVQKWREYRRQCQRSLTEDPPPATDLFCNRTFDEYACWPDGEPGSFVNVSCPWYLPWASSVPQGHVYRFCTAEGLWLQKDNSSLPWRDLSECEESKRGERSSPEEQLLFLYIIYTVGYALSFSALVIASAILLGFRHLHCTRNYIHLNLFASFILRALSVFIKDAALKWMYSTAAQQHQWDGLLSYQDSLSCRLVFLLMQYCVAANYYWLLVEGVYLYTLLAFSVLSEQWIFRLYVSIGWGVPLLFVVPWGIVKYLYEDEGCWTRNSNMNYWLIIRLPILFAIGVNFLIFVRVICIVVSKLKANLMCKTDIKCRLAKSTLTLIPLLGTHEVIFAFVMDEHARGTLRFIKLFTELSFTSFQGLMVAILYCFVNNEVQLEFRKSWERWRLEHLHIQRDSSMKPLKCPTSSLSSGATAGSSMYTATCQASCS
Summary of the method: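 HEK293 cells stably co-expressing constitutively active GLP-1R and a cAMP-responsive luciferase reporter were seeded in DMEM with 10% Nu serum, given compounds after 12 h, and incubated 24 h at 37 deg C. Luminescence was then read.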
% is set by controls: 0 for no effect and ±100 for the full control effect; potency is the fitted concentration of half-maximal effect; tags give direction and shape of the fitted curve.

SMILES	Potency	activity change, negative = inhibition
Cc1ccc(-c2nn(CC(=O)NC3CCCCC3)c3c2cnc2ccc(F)cc23)cc1C	inactive	–
COC(=O)c1nnn(-c2nonc2N)c1CN1CCc2ccccc21	inconclusive: 28.2 µM [inhibitor, single point]	–
CCCc1nc2ccc(Cl)cn2c1Cc1cccc(Cl)c1	inconclusive: 11.2 µM [inhibitor, single point]	–
Cc1ccc2sc(N(CCCN(C)C)C(=O)c3ccc(S(=O)(=O)N4CCCCCC4)cc3)nc2c1C	inconclusive: 7.94 µM [inhibitor, partial curve, poor fit]	–
Cc1ccc(S(=O)(=O)c2c(N)n(Cc3ccco3)c3nc4ccccc4nc23)cc1	inconclusive: 28.2 µM [inhibitor, single point]	–
Cc1ccc2oc(C(=O)N(Cc3ccccc3F)C3CCS(=O)(=O)C3)c(C)c2c1 (stereo unspecified)	inconclusive: 3.55 µM [inhibitor, single point]	–
COc1ccc(/C=C/C(=O)NC(=S)NNC(=O)Cc2cccs2)cc1OC	inactive	–
CCC(C)Sc1ccc(-c2nc3cnccn3c2NC2CCCCC2)cc1 (stereo unspecified)	inconclusive: 20 µM [inhibitor, single point] and inconclusive: 25.1 µM [inhibitor, partial curve, poor fit]	–
Cc1ccc2nc(N3CCN(CCO)CC3)nc(-c3ccccc3)c2c1	active: 6.31 µM	–
Cc1ccc(CSCC(=O)N2CCN(c3cc(Cl)ccc3C)CC2)cc1	inconclusive: 25.1 µM [inhibitor, single point]	–
O=C(CNc1ccccc1F)Nc1cccc2ccccc12	inconclusive: 7.94 µM [inhibitor, partial curve, poor fit]	–
CCOc1ccc(/C=N/NC(=O)Cc2csc(Nc3cccc(C(F)(F)F)c3)n2)c(OCC)c1	inconclusive: 31.6 µM [inhibitor, partial curve, poor fit]	–
CC1CCC(C(C)C)C(OCC(O)CNC(C)c2ccccc2)C1 (stereo unspecified)	inconclusive: 7.94 µM [inhibitor, partial curve, poor fit]	–
Cc1cccc(C)c1-n1c(C)cc(/C=N/NC(=O)CSc2ncccn2)c1C	inconclusive: 7.08 µM [inhibitor, partial curve, poor fit]	–
Cc1onc(-c2c(Cl)cccc2Cl)c1C(O)c1ccc(F)cc1 (stereo unspecified)	–	inconclusive: -52.6% [inhibitor]
Cc1c(C(=O)N2CC(C)OC(C)C2)[nH]c2ccc(Br)cc12 (stereo unspecified)	inconclusive: 10 µM [inhibitor, partial curve, poor fit]	–
CC(C)C[C@H](NC(=O)[C@@H]1Cc2ccccc2CN1)C(=O)Nc1ccc(C(C)C)cc1	inconclusive: 28.2 µM [inhibitor, single point]	–
CC(C)(C)c1ccc(S(=O)(=O)Nc2ccc(C(=O)N3CCCC3)cc2)cc1	inconclusive: 10 µM [inhibitor, single point]	–
CC(C)COc1cccc(C(=O)NC(=S)NCc2cccnc2)c1	inconclusive: 6.31 µM [inhibitor, partial curve, poor fit]	–
Cc1ccc(-c2csc(N3CCC[C@@H]3C(=O)NCCn3c(C(F)(F)F)nc4ccccc43)n2)cc1	inconclusive: 10 µM [inhibitor, partial curve, poor fit]	–
CCOc1ccc(CNC(=O)c2c(C)nn(-c3ccc(F)cc3)c2-n2cccc2)cc1	inconclusive: 11.2 µM [inhibitor, single point]	–

SMILES	Potency	activity change, negative = inhibition
O=C(Nc1ccccc1)C1Cc2c(-c3ccccc3Oc3ccccc3)ccnc2O1 (stereo unspecified)	inconclusive: 12.6 µM [inhibitor, partial curve, poor fit]	–
O=C(Nc1ccccn1)c1cccc(S(=O)(=O)N2CCc3ccccc3C2)c1	inconclusive: 11.2 µM [inhibitor, single point]	–
COc1cccc(Cn2c(=O)sc3ccccc3c2=O)c1	inconclusive: 28.2 µM [inhibitor, single point]	–
C=C[C@]1(C)C=C2C(=O)[C@@]3(O)OC(=O)[C@@]4(CCCC(C)(C)[C@H]34)[C@@]2(O)CC1	inconclusive: 15.8 µM [inhibitor, partial curve, poor fit]	–
CC(C)(C)NC(=O)NC(=O)CN1CCN(c2cccc(Cl)c2)CC1	inconclusive: 10 µM [inhibitor, partial curve, poor fit]	–
CCC(=O)Nc1nc(-c2ccc3c(c2)OCCO3)cs1	inactive	–
Cn1c(=O)c2c(nc(SCC(=O)Nc3ccccc3N3CCCCC3)n2C)n(C)c1=O	inactive	–
COc1ccc(C)cc1NC(=O)C1CCN(C(=O)c2ccc(C(C)(C)C)cc2)CC1	active: 8.91 µM	–
CCOc1ccc(OCC)c(NC(=O)CN(c2ccc(C)cc2)S(=O)(=O)c2c(C)noc2C)c1	inconclusive: 8.91 µM [inhibitor, partial curve, poor fit]	–
CCCCn1nc(C(=O)Nc2ccc3c(c2)OCO3)c2ccccc2c1=O	inconclusive: 28.2 µM [inhibitor, single point]	–
C=CCN1C(=O)C2(c3ccccc31)C1CCCC=C1C(C#N)=C(N)C2(C#N)C#N (stereo unspecified)	active: 4.47 µM	–
Cc1nc(-c2ccc(S(=O)(=O)N3CCN(C4c5ccccc5-c5ccccc54)CC3)s2)cs1	inconclusive: 3.55 µM [inhibitor, partial curve]	–
COC(=O)c1scc(S(=O)(=O)C(C)C)c1N/N=C(\C#N)C(=O)c1ccc(Cl)cc1	inconclusive: 11.2 µM [inhibitor, partial curve, poor fit]	–
Cc1cc(C(F)(F)F)nn1Cc1n[nH]c(=S)n1Cc1ccccc1	inconclusive: 3.16 µM [inhibitor, full curve]	–
O=C(CN1C(=O)S/C(=C\c2ccc(F)cc2)C1=O)NCCCn1ccnc1	inconclusive: 1.78 µM [inhibitor, partial curve, poor fit]	–
COc1ccc(-c2noc(-c3ccc(NC4CCCC4)c([N+](=O)[O-])c3)n2)cc1	inactive	–
CCOC(=O)N1CCN(C(=O)c2oc3ccc(S(=O)(=O)N4CCCCCC4)cc3c2C)CC1	inconclusive: 11.2 µM [inhibitor, partial curve, poor fit]	–
O=C(c1ccc(S(=O)(=O)NCc2ccco2)cc1)N1CCN(Cc2ccc3c(c2)OCO3)CC1	inconclusive: 11.2 µM [inhibitor, partial curve, poor fit]	–
Cc1ccc(-c2nc(CS(=O)CC(=O)N3CCN(c4ccccc4)CC3)c(C)o2)cc1 (stereo unspecified)	inconclusive: 31.6 µM [inhibitor, single point]	–
CSc1nnc(-c2sc3cc(C(F)(F)F)cnc3c2-c2ccccc2)n1C	inconclusive: 1.26 µM [inhibitor, full curve, poor fit]	–
COc1cc(OC)cc(C(=O)NC2CCCCCCC2)c1	–	inconclusive: -44.9% [inhibitor]

SMILES	Potency	activity change, negative = inhibition
Cc1ccc(C)c(C(O)c2ncc(-c3ccccc3F)[nH]2)c1 (stereo unspecified)	inconclusive: 28.2 µM [inhibitor, single point]	–
CCn1ccc(C(=O)Nc2cccc(Cl)c2)n1	inactive	–
CC(Oc1ccc2ccc(=O)oc2c1)C(=O)NCC1CCC(C(=O)O)CC1 (stereo unspecified)	inactive	–
CC1CCCC(NS(=O)(=O)c2cc(Br)cnc2N)C1C (stereo unspecified)	inconclusive: 10 µM [inhibitor, partial curve, poor fit]	–
O=C(Cc1csc(NC(=O)Nc2ccc(Cl)cc2)n1)NCc1ccccn1	inconclusive: 10 µM [inhibitor, partial curve, poor fit]	–
Cc1cccc(COC(=O)CCCNC(=O)c2ccc(Cl)cc2)c1	inconclusive: 11.2 µM [inhibitor, partial curve, poor fit]	–
CCOC(=O)c1ccc(S(=O)(=O)NC2CCC(C)CC2)cc1 (stereo unspecified)	inconclusive: 15.8 µM [inhibitor, single point]	–
CCOc1ccc(-c2cc(C(=O)NCc3ccccc3)[nH]n2)c(C)c1	inactive	–
CCOC(=O)C1CN(S(=O)(=O)c2ccc(OC)cc2)c2cc(Cl)ccc2O1 (stereo unspecified)	inconclusive: 12.6 µM [inhibitor, single point]	–
Oc1ccccc1CN1CCCC(N2CCN(c3cccc(C(F)(F)F)c3)CC2)C1 (stereo unspecified)	inconclusive: 12.6 µM [inhibitor, partial curve, poor fit]	–
CCOc1ccccc1Oc1cn[nH]c1-c1ccc(O)cc1O	inconclusive: 10 µM [inhibitor, single point]	–
O=C1/C(=C/c2cccs2)SC(=S)N1NS(=O)(=O)c1ccccc1	inconclusive: 10 µM [inhibitor, single point]	–
CCc1ccc(NC(=O)N2CCC(c3ccccc3)C2)cc1 (stereo unspecified)	inconclusive: 10 µM [inhibitor, partial curve, poor fit]	–
CS(=O)(=O)N(CC(=O)NCCSc1ccccc1)c1cc(C(F)(F)F)ccc1Cl	inconclusive: 14.1 µM [inhibitor, single point]	–
Cc1ccc2c(C)c(C(=O)N(C)CCC3CCCCO3)oc2c1C (stereo unspecified)	inconclusive: 10 µM [inhibitor, partial curve]	–
Oc1c(Br)cc(Br)cc1-c1nc2ccccc2s1	inactive	–
Cc1ccccc1CSCCNC(=O)c1ccc(N(C)S(=O)(=O)c2ccccc2)cc1	inconclusive: 3.98 µM [inhibitor, partial curve, poor fit]	–
COc1ccc(NC(=O)CSc2c3c(nc4ccccc24)CCCC3)c(OC)c1	inconclusive: 28.2 µM [inhibitor, single point]	–
C[C@@H](NC(=O)c1nc[nH]c1C(=O)N1CCN(C(=O)OC(C)(C)C)CC1)c1ccccc1	inconclusive: 28.2 µM [inhibitor, single point]	–
